In PubChem BioAssay AID463173 (ICCB-Longwood Screening Facility, Harvard Medical School, 2010) one finds survival data, which are given here for 90 compounds.

Out of some 52,000 compounds screened, about 1,700 (3.3%) were called active. Rule as the data show it: active = survival mostly below about 52% (no sharp cut-off); inactive = mostly above about 56%. Some of the results follow.

The subject of the assay is Wild type. The assay can be described thus: growth inhibition of S. aureus wild type versus tarO mutant, primary screen, teichoic acid synthesis inhibitors, RN4220, OD600 (AID 463173). The following applies: S. aureus RN4220 wild type/DeltatarO growth, OD600, 18 h, stronger effect = lower value, screened at 18.75 µg/mL (by protocol).
On to `CC(=O)c1cccc(NC(=O)Nc2nnc(N3CCCC3)s2)c1`, for which the survival is inactive: 105%.

With `CCOC(=O)c1c(C)n(-c2ccccc2)c2ccc(OC(=O)c3cccc(C)c3)cc12`, the survival is inactive: 50%.

For `COc1cccc(CNC(=O)c2ccc3c(=O)n4nc(Nc5ccccc5)sc4nc3c2)c1`, the survival is inactive: 75%.

As to `O=C(Nc1cccc(C(F)(F)F)c1)N1CC2CCCN2c2ccccc21` (stereo not given), the survival is inactive: 55%.

`COc1ccc(-n2nc(C(=O)Nc3ccc(Cl)cn3)c3c4ccccc4n(C)c3c2=O)cc1`: the survival was inactive: 79%.

Take `Cc1cccc(NC(=O)Cn2nc3c4ccccc4n(Cc4ccccc4)cc-3c2=O)c1`: the survival was inactive: 69%.

In the case of `COc1cc(OC)c(N(C)C(=O)c2cn(C3CCCC3)c(=O)c3c2c2ccccc2n3C)cc1Cl`, the survival was inactive: 69%.

Turning to `Cc1ccccc1C(=O)OCc1cc(=O)n2nc(C(C)C)sc2n1`, the survival was inactive: 68%.

In the case of `Cc1ccc(N2CCN(C(=O)c3cnn(-c4ccc(F)cc4F)c3C3CCN(C(=O)OC(C)(C)C)CC3)CC2)c(C)c1`, the survival was inactive: 119%.

As for `Cc1nc2cc(C(F)(F)F)ccc2n1C1CCN(CC(=O)N2CCCC2)CC1`, the survival is inactive: 111%.

On to `CN(Cc1ccccc1)S(=O)(=O)c1ccc2[nH]c3c(c2c1)CCCCC3`, for which the survival is inactive: 76%.

In the case of `CCN1CCN(C(c2ccc(C)cc2)c2c(O)cc(C)n(Cc3ccco3)c2=O)CC1` (stereo not given), the survival is inactive: 68%.

Regarding `CCNc1nc(Cl)nc(NC2CCCCC2)n1`, the survival was inactive: 113%.

As to `COc1ccc(-n2nc(C(=O)O)c(=O)n(C)c2=O)cc1`, the survival was inactive: 73%.

On to `CC1=C(C(=O)Nc2ccc(C)cc2C)C(c2ccc(C(=O)O)cc2)n2nc(SCc3ccccc3)nc2N1` (stereo not given), for which the survival is inactive: 64%.

Consider `COc1ccc2[nH]c3nc(SCC(=O)NC(C)(C)C)nnc3c2c1`, for which the survival is inactive: 104%.

As for `CCOC(=O)N1CCN(C(=O)CN(C)S(=O)(=O)c2cc(Cl)ccc2Cl)CC1`, the survival was inactive: 105%.

Take `Cc1ccc2c(c1)c1c(c(=O)n(-c3ccccc3)c(=O)n1CC(=O)c1ccc(F)cc1)n2C`: the survival is inactive: 65%.

As for `Cc1ccc(OCCCC(=O)Nc2ccc3c(c2)OCO3)cc1`, the survival is inactive: 111%.

Take `CCOc1ccc(CNC(=O)CC(C)n2nc(C)cc2C)cc1OC` (stereo not given): the survival was inactive: 91%.

`Cc1ccc(NC(=O)c2ccc(CN3CC(=O)N4CCCCC4C3=O)cc2)cc1` (stereo not given): the survival is active: -6%.

Consider `Nc1nnc(SCC(=O)C2CC2)s1`, for which the survival was inactive: 108%.

For the compound `CCc1nn2c(=O)cc(COC(=O)c3ccc(NC(=O)COc4ccc(C)cc4)cc3)nc2s1`, the survival was inactive: 115%.

In the case of `Cn1c(SCC(=O)N2CCCc3ccccc32)ncc(C(=O)Nc2ccccc2)c1=O`, the survival was inactive: 128%.

Consider `CCc1cccc(NC(=O)Cn2c(=O)n(-c3cccc(Cl)c3)c(=O)c3c2c2cc(C)ccc2n3C)c1`, for which the survival was inactive: 68%.

Consider `Cc1ccc(S(=O)(=O)N(C)CC(=O)O)cc1`, for which the survival was inactive: 113%.

For `COc1ccc(OC)c(CNC(=O)c2cnc3c(C)cccn3c2=O)c1`, the survival is inactive: 74%.

In the case of `Cc1cc(C)cc(NC(=O)CSc2nc(=O)n(Cc3ccccn3)c3c2CCC3)c1`, the survival was inactive: 64%.

Turning to `CCOC(=O)C(C)Sc1nc(-c2ccccc2Cl)cc(-c2ccccc2)c1C#N` (stereo not given), the survival was inactive: 79%.

For the compound `CCN(CC)C(=O)c1ccccc1NC(=O)c1ccccc1`, the survival is inactive: 98%.

Take `CCN(c1ccccc1)S(=O)(=O)c1ccc(-c2cc(C)no2)s1`: the survival was inactive: 159%.

As to `CSc1ccc(Cn2nnc(C(=O)Nc3ccc(C)cc3Cl)c2N)cc1`, the survival is inactive: 97%.

With `Cc1ccc2[nH]c(=O)c(CN(C(=O)c3cccc(Cl)c3)C(C)(C)C)cc2c1`, the survival was inactive: 108%.

Take `Cc1ccccc1C(=O)Nc1cccc(C(=O)OCc2cc(=O)n3ccsc3n2)c1`: the survival was inactive: 64%.

In the case of `Cc1cccc(Oc2nc3c(c(=O)n(C)c(=O)n3C)n2Cc2ccccc2)c1C`, the survival is inactive: 75%.

Turning to `COc1ccc(-n2cc(-c3ccccc3)c3c(NC4CCCC4)ncnc32)cc1`, the survival is inactive: 59%.

Consider `CC(C)(C)NS(=O)(=O)c1ccc(NC(=O)CN2C(=O)c3ccccc3C2=O)cc1`, for which the survival is inactive: 107%.

As to `CC(C)CC(=O)Nc1cc(-c2ccccc2F)nn1-c1ccccc1`, the survival was inactive: 82%.

On to `Cc1cccc(C)c1OCc1cc(=O)n2c3c(sc2n1)CCCC3`, for which the survival is active: -1%.

For the compound `COc1ccccc1-c1noc(CCCC(=O)NCc2ccco2)n1`, the survival was inactive: 86%.

With `Cc1cc(C)cc(NC(=O)Nc2nnc(N(C)C3CCCCC3)s2)c1`, the survival was inactive: 127%.

Turning to `C=CCn1c(/N=C/c2ccc3c(c2)OCO3)nc2ccccc21`, the survival was inactive: 103%.

Turning to `COc1cc(NC(=O)Cn2c(=O)n(CC3CCCO3)c(=O)c3ccccc32)cc(OC)c1` (stereo not given), the survival was inactive: 121%.

Take `CCOc1ccc(CCNc2nc3ccccc3n3c(C)nnc23)cc1OCC`: the survival was inactive: 111%.

In the case of `COc1ccc(C(=O)Nc2nnc(C(C)C)s2)cc1OC`, the survival is inactive: 85%.

On to `COc1ccc2sc(N(Cc3cccnc3)C(=O)COc3ccccc3)nc2c1`, for which the survival is inactive: 57%.

With `CCn1cnc2c(=O)oc3ccc(S(=O)(=O)Nc4ccc(OC)cc4)cc3c21`, the survival is inactive: 81%.

As for `O=c1ccc2nc3ccccc3c(=O)n2[nH]1`, the survival was inactive: 111%.

With `COc1ccc(CCNC(=O)c2ccc(Cn3c(=O)c4ccccc4n(Cc4cccc(C)c4)c3=O)cc2)cc1OC`, the survival is inactive: 126%.

For the compound `CCC1CCCCN1S(=O)(=O)c1cc(C(=O)Nc2ccc(C)c(F)c2)ccc1F` (stereo not given), the survival was inactive: 71%.

For `CCOCCCn1c(=N)c(C(=O)NC2CCCC2)cc2c(=O)n3cc(C)ccc3nc21`, the survival is inactive: 70%.

On to `Cc1ccc(CNC(=O)c2cnn(-c3cccc(C)c3)c2C2CCN(C(=O)OC(C)(C)C)CC2)cc1`, for which the survival was inactive: 84%.

`CCCCc1nn2c(=O)cc(COC(=O)c3ccc(NC(=O)C(CC)CC)cc3)nc2s1`: the survival was inactive: 78%.

On to `Cc1ccc(NC(=O)c2cc3nc(-c4ccccc4)cc(-c4ccccc4)n3n2)cc1`, for which the survival is inactive: 92%.

Regarding `COc1ccccc1Cc1nc2ccccc2nc1SCC(=O)Nc1cc(Cl)ccc1OC`, the survival was inactive: 89%.

As for `COCCNC(=O)CSc1nc(-c2ccccc2)[nH]c1-c1ccc(OC)cc1`, the survival was inactive: 74%.

`CCOC(=O)c1c(S(=O)(=O)N2CCC(C(=O)Nc3ccc(C)cc3C)CC2)c(C)n(C)c1C`: the survival is inactive: 69%.

Turning to `N#Cc1nc(-c2ccccc2)oc1NCCCn1ccnc1`, the survival is inactive: 92%.

As to `Cc1cc(C)cc(NC(=O)c2cnc3sc(N4CCCC4)nn3c2=O)c1`, the survival was inactive: 73%.

As for `CCc1ccccc1NC(=O)c1nnn(Cc2ccc(Cl)cc2)c1N`, the survival was inactive: 85%.

`COc1cccc(-n2c(SCC(=O)Nc3nnc(C)s3)nc3c([nH]c4ccccc43)c2=O)c1`: the survival was inactive: 47%.

Turning to `Fc1ccc2[nH]c(-c3cccs3)cc2c1`, the survival was inactive: 45%.

On to `CC(C)Cn1c(=O)c2sccc2n2c(CCCC(=O)N3CCN(c4ccc(F)cc4)CC3)nnc12`, for which the survival is inactive: 109%.

For `Cc1cc(CN2CCN(c3cccc(C)c3C)CC2)cs1`, the survival was inactive: 92%.

Consider `CCOc1ccc(NC(=O)C2CCCN(S(=O)(=O)c3c(C)noc3/C=C/N(C)C)C2)cc1` (stereo not given), for which the survival is inactive: 87%.

Turning to `CCOC(=O)C1=C(CN2CCN(c3ccc(OC)cc3)CC2)NC(=O)NC1c1ccc(Cl)cc1` (stereo not given), the survival was inactive: 68%.

As for `O=C(Nc1cccc(C(F)(F)F)c1)c1cc2nc(-c3ccc4c(c3)OCO4)cc(C(F)(F)F)n2n1`, the survival was inactive: 65%.

Take `C=CCC(c1ccccc1)N(C(C)=O)c1ccco1` (stereo not given): the survival was inactive: 99%.

In the case of `Cc1ccc(-c2nc(CSc3nncn4c3cc3occc34)c(C)o2)cc1`, the survival was inactive: 92%.

With `NCCc1nc2cccnc2n1-c1ccccc1`, the survival was inactive: 100%.

In the case of `Cc1ccc(Cn2cc(C(=O)c3ccc4c(c3)OCO4)c(=O)c3cc(C)ccc32)cc1`, the survival was inactive: 81%.

`COc1ccc(C)cc1NC(=O)N1CC(C)Sc2ccccc21` (stereo not given): the survival is inactive: 66%.

For `Cc1ccc(OCC(=O)NCC2(N(C)C)CCCCC2)cc1C`, the survival was inactive: 89%.

Turning to `Cc1ccc(C)c(NC(=O)Cn2c(=O)n(-c3ccc(CC(=O)NCC4CCCO4)cc3)c(=O)c3ccccc32)c1` (stereo not given), the survival was inactive: 102%.

Regarding `Cc1ccc(NC(=O)c2c(C)nc3sc(C(=O)Nc4ccc(F)cc4)c(N)c3c2-c2ccc(C)o2)c(C)c1`, the survival is inactive: 79%.

As to `Cc1ccc(CNc2oc(-c3ccc(COc4ccc(C)cc4)o3)nc2C#N)cc1`, the survival is inactive: 92%.

As to `CCCOc1ccc(C(=O)NCC2OCCc3ccccc32)cc1` (stereo not given), the survival is inactive: 74%.

With `CC1CN(C(=O)CCC(=O)Nc2cc(F)ccc2F)c2ccccc2S1` (stereo not given), the survival was inactive: 69%.

For `COc1ccc(-n2c(SCC(=O)N3CCc4ccccc43)nc3c([nH]c4ccccc43)c2=O)cc1`, the survival was inactive: 81%.

Turning to `CCCc1nc2ccccc2n1CC(O)COc1ccc(C(=O)OC)cc1` (stereo not given), the survival is inactive: 77%.

For `CCOC(=O)C1CCCN(C(=O)Cn2ncc3c(C)n(Cc4ccccc4Cl)c(C)c3c2=O)C1` (stereo not given), the survival was inactive: 118%.

As for `CCc1ccc(CNC(=O)c2cc3ccccn3n2)cc1`, the survival was inactive: 113%.

As to `COCCCN1C(=O)c2ccccc2CC1(C)C(=O)NC1CCCCC1` (stereo not given), the survival was inactive: 88%.

On to `COc1ccc(C2C(C(=O)Nc3ccc(Cl)cc3)=C(C)Nc3nc(SCc4cccc(C)c4)nn32)cc1OC` (stereo not given), for which the survival is inactive: 81%.

Turning to `CCC1CCCCN1S(=O)(=O)c1ccc(C(=O)Nc2sc3c(c2C(N)=O)CCC3)cc1` (stereo not given), the survival was inactive: 74%.

As to `O=C(CSc1nnc(-c2ccccc2F)o1)Nc1cccc(C(F)(F)F)c1`, the survival was inactive: 60%.

For `O=C(Nc1ccc(Cl)cc1F)c1cnc2sc(N3CCOCC3)nn2c1=O`, the survival was inactive: 76%.

`Cc1ccc2nc(NC(=O)CSc3nccn3-c3ccc(Cl)cc3)sc2c1`: the survival was inactive: 74%.

For `CC(C)(C)OC(=O)N1CCC(c2c(C(=O)N3CCN(c4ccccn4)CC3)cnn2-c2ccccc2)CC1`, the survival was inactive: 72%.

Consider `COc1ccc(-c2nc(C)c(CCNC(=O)c3cccs3)s2)cc1OC`, for which the survival is inactive: 69%.
